{"source": "the supplement of paper PMC5499739", "note": "The full ranking holds about 16,000 sequences; the median of “Z-score” is about -0.37, and the highest 2% start at about 3.1. The list shows a part of the results."}
{"system": "RBM10 RRM1-ZnF-RRM2 (GST-tagged construct)", "assay": "RNAcompete 7-mer binding Z-score; higher = stronger binding preference", "procedure": "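RNAcompete: 20 pmol GST-tagged RBM10 RNA-binding constructs were incubated with a designed RNA pool of about 241,000 sequences up to 41 nt (1.5 nmol) on glutathione beads for 30 min at 4 °C and washed. Bound RNAs were identified by microarray hybridisation. Each RNA 7-mer is scored by a one-sided Z-score of its enrichment, computed over probes that contain the 7-mer within longer pool sequences.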"}
{"sequence": "AGAAGUA", "RNAcompete 7-mer binding Z-score": 0.355}
{"sequence": "CAUCCUC", "RNAcompete 7-mer binding Z-score": -0.81}
{"sequence": "GGUCAAU", "RNAcompete 7-mer binding Z-score": 0.534}
{"sequence": "UUGAACA", "RNAcompete 7-mer binding Z-score": -0.482}
{"sequence": "AACGGUG", "RNAcompete 7-mer binding Z-score": 1.62}
{"sequence": "CAUGGCC", "RNAcompete 7-mer binding Z-score": -0.344}
{"sequence": "CAAACGA", "RNAcompete 7-mer binding Z-score": -0.00877}
{"sequence": "GUACGUG", "RNAcompete 7-mer binding Z-score": 0.505}
{"sequence": "GGUAUCC", "RNAcompete 7-mer binding Z-score": 0.151}
{"sequence": "ACUAGCC", "RNAcompete 7-mer binding Z-score": -0.774}
{"sequence": "AGGCGCU", "RNAcompete 7-mer binding Z-score": -0.18}
{"sequence": "CGCCUGG", "RNAcompete 7-mer binding Z-score": -0.482}
{"sequence": "AUAGAAG", "RNAcompete 7-mer binding Z-score": 0.931}
{"sequence": "GGCCGCC", "RNAcompete 7-mer binding Z-score": -0.683}
{"sequence": "AGACAUG", "RNAcompete 7-mer binding Z-score": 0.166}
{"sequence": "UGUGUCA", "RNAcompete 7-mer binding Z-score": -0.592}
{"sequence": "CUAUAUC", "RNAcompete 7-mer binding Z-score": -0.668}
{"sequence": "UCCGCUU", "RNAcompete 7-mer binding Z-score": -0.897}
{"sequence": "GCAGCGA", "RNAcompete 7-mer binding Z-score": 0.894}
{"sequence": "UGGCCAG", "RNAcompete 7-mer binding Z-score": 0.264}
{"sequence": "UUAUUGU", "RNAcompete 7-mer binding Z-score": -0.548}
{"sequence": "GCCCGUC", "RNAcompete 7-mer binding Z-score": -0.719}
{"sequence": "GGUAACA", "RNAcompete 7-mer binding Z-score": 1.31}
{"sequence": "CUCUGUC", "RNAcompete 7-mer binding Z-score": -0.814}
{"sequence": "UGCCUAG", "RNAcompete 7-mer binding Z-score": -0.599}
{"sequence": "CAAUUCC", "RNAcompete 7-mer binding Z-score": -0.755}
{"sequence": "CUCGACA", "RNAcompete 7-mer binding Z-score": -0.708}
{"sequence": "CGAUCCC", "RNAcompete 7-mer binding Z-score": -0.799}
{"sequence": "AGCGGGG", "RNAcompete 7-mer binding Z-score": 3.96}
{"sequence": "UAGUCUG", "RNAcompete 7-mer binding Z-score": -0.457}
{"sequence": "AUAAGUG", "RNAcompete 7-mer binding Z-score": 0.355}
{"sequence": "GUAAAAG", "RNAcompete 7-mer binding Z-score": 0.767}
{"sequence": "CCCACGC", "RNAcompete 7-mer binding Z-score": -0.53}
{"sequence": "CAACUGU", "RNAcompete 7-mer binding Z-score": -0.741}
{"sequence": "UAGGGAU", "RNAcompete 7-mer binding Z-score": 2.48}
{"sequence": "CACUGAG", "RNAcompete 7-mer binding Z-score": -0.209}
{"sequence": "ACCAUUA", "RNAcompete 7-mer binding Z-score": -0.573}
{"sequence": "AACGCGU", "RNAcompete 7-mer binding Z-score": 0.0714}
{"sequence": "CCGGGUA", "RNAcompete 7-mer binding Z-score": 0.814}
{"sequence": "GCUCGGC", "RNAcompete 7-mer binding Z-score": -0.329}
{"sequence": "UCGAUUG", "RNAcompete 7-mer binding Z-score": -0.581}
{"sequence": "UAACGAA", "RNAcompete 7-mer binding Z-score": -0.249}
{"sequence": "GAGAGAC", "RNAcompete 7-mer binding Z-score": 0.166}
{"sequence": "UACAUCG", "RNAcompete 7-mer binding Z-score": -0.395}
{"sequence": "CCAUAAC", "RNAcompete 7-mer binding Z-score": -0.712}
{"sequence": "GGAGUUC", "RNAcompete 7-mer binding Z-score": 0.286}
{"sequence": "GAUAAUA", "RNAcompete 7-mer binding Z-score": 0.206}
{"sequence": "CAGCAGA", "RNAcompete 7-mer binding Z-score": 0.494}
{"sequence": "GGGUAAU", "RNAcompete 7-mer binding Z-score": 2.99}
{"sequence": "UGCCCGA", "RNAcompete 7-mer binding Z-score": -0.602}
{"sequence": "UGCGCAG", "RNAcompete 7-mer binding Z-score": 0.0677}
{"sequence": "AGUCUCA", "RNAcompete 7-mer binding Z-score": -0.584}
{"sequence": "AAAUAGC", "RNAcompete 7-mer binding Z-score": -0.278}
{"sequence": "GACGAGU", "RNAcompete 7-mer binding Z-score": 0.468}
{"sequence": "CGGCCUA", "RNAcompete 7-mer binding Z-score": -0.77}
{"sequence": "AUGCGGC", "RNAcompete 7-mer binding Z-score": 0.217}
{"sequence": "GACGAUU", "RNAcompete 7-mer binding Z-score": -0.366}
{"sequence": "CAGAGAA", "RNAcompete 7-mer binding Z-score": 0.108}
{"sequence": "GCCCUCA", "RNAcompete 7-mer binding Z-score": -0.945}
{"sequence": "GCCGUAG", "RNAcompete 7-mer binding Z-score": -0.00148}
{"sequence": "GGCACCU", "RNAcompete 7-mer binding Z-score": -0.264}
{"sequence": "UCGGCUC", "RNAcompete 7-mer binding Z-score": -0.701}
{"sequence": "GGUGUGC", "RNAcompete 7-mer binding Z-score": 1.85}
{"sequence": "UUGUUUA", "RNAcompete 7-mer binding Z-score": -0.661}
{"sequence": "CGGUUAA", "RNAcompete 7-mer binding Z-score": 0.33}
{"sequence": "ACCCUUU", "RNAcompete 7-mer binding Z-score": -1.01}
{"sequence": "CGGUAUA", "RNAcompete 7-mer binding Z-score": 0.312}
{"sequence": "UACUCUC", "RNAcompete 7-mer binding Z-score": -0.734}
{"sequence": "GACUAUC", "RNAcompete 7-mer binding Z-score": -0.846}
{"sequence": "CCGCGAC", "RNAcompete 7-mer binding Z-score": -0.723}
{"sequence": "CUCUCCC", "RNAcompete 7-mer binding Z-score": -0.635}
{"sequence": "AGAAGGA", "RNAcompete 7-mer binding Z-score": 4.29}
{"sequence": "UGACAAA", "RNAcompete 7-mer binding Z-score": -0.395}
{"sequence": "GGCGGAC", "RNAcompete 7-mer binding Z-score": 1.38}
{"sequence": "GUGAGCU", "RNAcompete 7-mer binding Z-score": 0.406}
{"sequence": "AUGCCAU", "RNAcompete 7-mer binding Z-score": -0.785}
{"sequence": "GAUUCGA", "RNAcompete 7-mer binding Z-score": -0.173}
{"sequence": "CGAUGUU", "RNAcompete 7-mer binding Z-score": -0.657}
{"sequence": "CUCAAUC", "RNAcompete 7-mer binding Z-score": -0.806}
{"sequence": "GGGUACC", "RNAcompete 7-mer binding Z-score": 1.58}
{"sequence": "ACCCAAC", "RNAcompete 7-mer binding Z-score": -0.792}
{"sequence": "AUCAGCC", "RNAcompete 7-mer binding Z-score": -0.839}
{"sequence": "CAGCUAU", "RNAcompete 7-mer binding Z-score": -0.635}
{"sequence": "UAACGCG", "RNAcompete 7-mer binding Z-score": -0.333}
{"sequence": "GGGCAGG", "RNAcompete 7-mer binding Z-score": 3.39}
{"sequence": "CUCGCCG", "RNAcompete 7-mer binding Z-score": -0.785}
{"sequence": "UUAACAA", "RNAcompete 7-mer binding Z-score": -0.278}
{"sequence": "CAAGUCA", "RNAcompete 7-mer binding Z-score": -0.369}
{"sequence": "AGCUGUA", "RNAcompete 7-mer binding Z-score": -0.559}
{"sequence": "AUUCAGC", "RNAcompete 7-mer binding Z-score": -0.679}
{"sequence": "CUCAAAC", "RNAcompete 7-mer binding Z-score": -0.806}
{"sequence": "ACAUGCC", "RNAcompete 7-mer binding Z-score": -0.941}
